Measured values published in patent US6541195B2, “Correction of genetic defects using chemical chaperones” (The Regents of the University of California, priority 1996, dated 2003).

System: temperature sensitive mutant of the E1 enzyme (ts20 cells)

SMILES | levels of p53 by Western blotting | levels of p53 nuclear staining (indirect immunofluorescence) | nuclear p53 staining in the presence of cycloheximide | nuclear p53 staining when agent is added to cells already at the nonpermissive temperature | relative levels of hsp73 and hsp72 by Western blotting | nuclear p53 staining in the presence of cycloheximide (1 D 39.5° C., then 24 h 39.5° C. with agent plus cycloheximide) | levels of p53 by Western blotting (39.5° C., one day) | relative levels of hsp73 and hsp72 by Western blotting (39.5° C., one day) | levels of p53 nuclear staining (indirect immunofluorescence) (39.5° C., one day, 75 mM TMAO, 0.75 M glycerol)
C[N+](C)(C)[O-] [TMAO, trimethylamine N-oxide] | significantly reduced | significantly reduced | strong nuclear staining of p53 was still observed | diminishment, but not complete abolition of nuclear p53 staining | appeared identical | – | – | – | –
OCC(O)CO [glycerol] | – | – | – | – | – | strong nuclear staining of p53 was still observed | significantly reduced | appeared identical | significantly reduced

Where two headings read alike, the source gives them in different places.
